# Source: PMC12040169 (PLOS Biology, 2025)
# The list shows a part of the results.
# Test system: T1, C. trachomatis L2/434/Bu expressing GFP (CTL2-GFP)
# T1 construct: L2/434/Bu GFP intracellular growth in HeLa cells
# Parameters: species or system HeLa; C. trachomatis total inclusion area by high-content imaging, normalised to DMSO
# Conditions: total inclusion area; 28.5 h, 10 µM; inhibitor
# How it was run: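 Following bulk GFP and resorufin fluorescence reads, infected cells were fixed, Hoechst-stained and imaged on a high-content platform. Inclusion total area and number per well served as growth proxies; nuclei counts indicated host viability. MICs were derived as for the fluorescence assay.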
row,SMILES,% of control remaining
1,O=C(c1ccco1)N1CCCC(n2c(=O)oc3ccc(Cl)cc32)C1 (stereo not drawn) [CBK282892],108.937
2,O=C(CSc1cc(Cl)ccc1Cl)Nc1cccc(Cl)c1 [CBK263712],80.7861
3,CC(C)Oc1ccc(C(=O)N2CCN(c3ccccc3)CC2)cc1 [CBK305847],56.6075
4,COc1ccc([N+](=O)[O-])cc1N1CCN(C(=O)OC(C)(C)C)CC1 [CBK003504],83.7811
5,COc1nc(N)nc2c1ccn2C1CC(O)C(CO)O1 (stereo not drawn) [CBK201177],74.2585
6,C=Cn1ncc(CN2CCN(C3CCCCC3)C(=O)C2)c1C [CBK282526],134.585
7,O=C(NC(C(=O)N/N=C/c1cccc(O)c1)c1n[nH]c(=O)c2ccccc12)c1ccccc1 (stereo not drawn) [CBK262853],66.03
8,COc1ccc(CCNc2c(Cc3ccccc3)c(C)c(C#N)c3nc4ccccc4n23)cc1OC [CBK263135],99.6474
9,CCCCCOc1ccc(Nc2cc(-c3ccco3)ncn2)cc1 [CBK090892],68.3743
10,CCCCc1c(C(=O)O)cc(OC)cc1C(=O)O [CBK217866],95.0268
11,COc1ccc(S(=O)(=O)NC[C@H]2C[C@@H]3CC[N@]2C[C@@H]3CN2CCSCC2)cc1 [CBK288769],98.4227
12,O=C(CCSc1nnnn1-c1ccc(C(=O)O)cc1)Nc1ccc(F)cc1 [CBK300497],70.4018
13,CC(=O)N1c2ccc(NC(=O)C3(C)CCCO3)cc2CC1C (stereo not drawn) [CBK282702],118.356
14,CCCNc1cc(-c2cccc(Cl)c2)nc2ccnn12 [CBK037747],113.043
15,Cc1ccc(O)c(NC(=O)c2nc3ncccn3n2)c1 [CBK267629],104.244
16,Cc1n[nH]c(=S)n1-c1ccc(Cl)cc1 [CBK012457],49.2752
17,COc1ccc(CC(=O)N2CCNC(=O)C2Cc2ccccc2-c2ccccc2)cc1OC (stereo not drawn) [CBK285827],119.38
18,Clc1cc(-c2cnc3ccccc3n2)c(Cl)s1 [CBK006186],107.625
19,COc1cc(C(=O)Nc2cc(-c3nc4ncccc4o3)ccc2C)ccc1OCc1ccc(Cl)cc1 [CBK264704],100.01
20,O=C(Nc1ccc2[nH]ccc2c1)c1ccc(F)c(F)c1 [CBK159683],110.453
21,CCc1ccc(Oc2c[nH]nc2-c2ccc(OCc3cnn(-c4ccccc4)c3)cc2O)cc1 [CBK266233],103.3
22,COc1ccc(-c2cc(C(=O)NCCc3c[nH]c4ccccc34)cnc2-c2ccc(F)cc2)cn1 [CBK036649],119.873
23,CC(C)(C)C(=O)NC1(C(F)(F)F)N=C(c2ccccc2)NC1=O (stereo not drawn) [CBK267475],107.551
24,CCc1c(C)sc(NC(=O)C2CCC2)c1C(=O)NCc1cccnc1 [CBK307414],86.3661
25,Cc1ccc(CNC(=O)c2nnc(C(=O)Nc3cccc(Cl)c3)s2)o1 [CBK294404],63.4864
26,Cc1nc(C)c(C(=O)N2Cc3ccccc3C2)s1 [CBK200326],124.205

row,SMILES,% of control remaining
1,Cc1ccc(-n2c(C)cc(/C=N/NC(=O)c3ccc(CN4CCOCC4)cc3)c2C)cc1 [CBK263324],119.888
2,C=CCn1ncc(CN(CCN(C)C)Cc2ccc(C)o2)c1C [CBK282846],121.582
3,O=C(/C=C/c1cn(-c2ccccc2)nc1-c1cccnc1)c1ccc(-c2ccccc2)cc1 [CBK263213],95.3052
4,COc1ccc(C(C)(C)C)cc1S(=O)(=O)NC1CC(C)(C)NC(C)(C)C1 [CBK267865],104.177
5,CC1(C(=O)O)NC(c2ccccc2O)C2C(=O)N(c3ccccc3[N+](=O)[O-])C(=O)C21 (stereo not drawn) [CBK264979],99.8657
6,N#Cc1ccc(CSc2nnc(COc3ccccc3)n2Cc2ccco2)cc1 [CBK267539],111.514
7,O=C(O)C1CC(=O)N(c2cccc3ccccc23)C1 (stereo not drawn) [CBK286902],124.651
8,O=C(NCC1(c2ccccc2)CCCC1)c1ccc(NC(=O)C2COc3ccccc3O2)cc1 (stereo not drawn) [CBK266558],87.8814
9,CS(=O)(=O)NC1CCN(S(=O)(=O)c2cc(Cl)cc(Cl)c2)CC1 [CBK306082],51.6434
10,OCc1cccc(-c2cncc(N3CCN(CCN4CCCC4)CC3)n2)c1 [CBK066136],97.5243
11,Cc1cccc(OCC(=O)N2CCN(Cc3ccccn3)CC2)c1 [CBK134023G],92.1061
12,O=c1n(Cc2ccncc2)nc(C(F)(F)F)c2cccn12 [CBK283966],104.695
13,O=C(O)c1ccc(NS(=O)(=O)c2ccc3ccccc3c2)cc1 [CBK034053],99.7592
14,CC1CCc2nn(CCNC(=O)c3cccs3)c(=O)cc2C1 (stereo not drawn) [CBK284483],107.671
15,Cc1sc2nc(C(C)N(C)Cc3cc[nH]n3)[nH]c(=O)c2c1C (stereo not drawn) [CBK306275],45.4066
16,OC(CSc1ccccc1)CN1CCN(C(c2ccccc2)c2ccccc2)CC1 (stereo not drawn) [CBK074683],84.2456
17,Cc1nc(C)n(CC2CCCN(Cc3ccccc3C#N)C2)n1 (stereo not drawn) [CBK305085],82.2244
18,COCCNS(=O)(=O)c1cc(OCC(N)=O)c(C)cc1Cl [CBK266461],89.3235
19,CCC(=O)N1CCC(NC(=O)N(CCc2ccccn2)Cc2ccccc2)CC1 [CBK171898],62.9102
20,O=C(NCc1ccccc1)c1ccccc1NS(=O)(=O)c1ccccc1F [CBK113881],81.4124
21,CCc1ocnc1C(=O)NC1CCN(c2ncccc2C#N)CC1 [CBK306935],77.9978
22,Fc1ccc(-c2cncc(NCc3ccncc3)n2)cc1Cl [CBK065343],130.644
23,CC(=O)N1CCN(c2ccc(NC(=O)c3cccc4c(Br)cccc34)cc2Cl)CC1 [CBK269624],90.2011
24,N#Cc1ccc(NC(=O)CCn2cnnn2)cc1 [CBK269832],56.8286
25,COc1ccc(Br)cc1CN(CCc1ccc2c(c1)OCO2)Cc1cccnc1 [CBK263327G],82.5964
